According to the supplement of paper PMC8728848:
This is one part of the list.

Legend:
Assay in all cases: glycan array binding signal (z-score within array); higher = stronger binding
Settings in all cases: glycan notation: IUPAC condensed, linker removed
[1] = target: Gal3S(b1-3)[Fuc(a1-4)]GlcNAc
Summary of the method: (§1)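 Negative Z-scores can be read as non-binding. The Z-score is calculated within each array and then averaged across arrays of one protein sequence at different concentrations or buffers and across linkers. Arrays, 3228 in all, were curated from the Consortium for Functional Glycomics database and kept only where the protein sequence was available.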

[2] = target: Gal3S(b1-4)Glc
Summary of the method: as §1

[3] = target: Gal3S(b1-4)Glc6S
Summary of the method: as §1

[4] = target: Gal3S(b1-4)GlcNAc
Summary of the method: as §1

[5] = target: Gal3S(b1-4)GlcNAc6S
Summary of the method: as §1

[6] = target: Gal3S(b1-4)[Fuc(a1-3)]Glc
Summary of the method: as §1

[7] = target: Gal3S(b1-4)[Fuc(a1-3)]Glc6S
Summary of the method: as §1

[8] = target: Gal3S4S(b1-4)GlcNAc
Summary of the method: as §1

[9] = target: Gal3S6S(b1-4)GlcNAc
Summary of the method: as §1

[10] = target: Gal3S6S(b1-4)GlcNAc6S
Summary of the method: as §1

[11] = target: Gal4S(b1-4)GlcNAc
Summary of the method: as §1

[12] = target: Gal4S6S(b1-4)GlcNAc
Summary of the method: as §1

[13] = target: Gal6S(b1-3)GlcNAc
Summary of the method: as §1

[14] = target: Gal6S(b1-3)GlcNAc6S
Summary of the method: as §1

[15] = target: Gal6S(b1-4)Glc
Summary of the method: as §1

[16] = target: Gal6S(b1-4)Glc6S
Summary of the method: as §1

[17] = target: Gal6S(b1-4)GlcNAc
Summary of the method: as §1

[18] = target: Gal6S(b1-4)GlcNAc6S
Summary of the method: as §1

[19] = target: GalNAc(a1-3)Gal
Summary of the method: as §1

[20] = target: GalNAc(a1-3)GalNAc
Summary of the method: as §1

[21] = target: GalNAc(a1-3)GalNAc(b1-3)Gal(a1-4)Gal(b1-4)Glc
Summary of the method: as §1

[22] = target: GalNAc(a1-3)GalNAc(b1-3)Gal(a1-4)Gal(b1-4)GlcNAc
Summary of the method: as §1

[23] = target: GalNAc(b1-3)Gal
Summary of the method: as §1

[24] = target: GalNAc(b1-3)Gal(a1-4)Gal(b1-4)GlcNAc
Summary of the method: as §1

[25] = target: GalNAc(b1-3)Gal(a1-4)Gal(b1-4)GlcNAc(b1-3)Gal(b1-4)Glc
Summary of the method: as §1

[26] = target: GalNAc(b1-3)Gal(a1-6)Gal(b1-4)Glc
Summary of the method: as §1

[27] = target: GalNAc(b1-3)GalNAc
Summary of the method: as §1

[28] = target: GalNAc(b1-4)Gal(b1-4)Glc
Summary of the method: as §1

[29] = target: GalNAc(b1-4)GlcNAc
Summary of the method: as §1

[30] = target: GalNAc(b1-4)GlcNAc(b1-2)Man(a1-3)[GalNAc(b1-4)GlcNAc(b1-2)Man(a1-6)]Man(b1-4)GlcNAc(b1-4)GlcNAc
Summary of the method: as §1

[31] = target: GalNAc(b1-6)GalNAc
Summary of the method: as §1

[32] = target: Glc(a1-4)Glc
Summary of the method: as §1

[33] = target: Glc(a1-4)Glc(a1-4)Glc(a1-4)Glc
Summary of the method: as §1

[34] = target: Glc(a1-6)Glc(a1-6)Glc
Summary of the method: as §1

[35] = target: Glc(a1-6)Glc(a1-6)Glc(a1-6)Glc
Summary of the method: as §1

[36] = target: Glc(b1-4)Glc
Summary of the method: as §1

[37] = target: Glc(b1-6)Glc
Summary of the method: as §1

[38] = target: GlcA(b1-3)Gal
Summary of the method: as §1

[39] = target: GlcA(b1-3)GlcNAc
Summary of the method: as §1

[40] = target: GlcA(b1-6)Gal
Summary of the method: as §1

[41] = target: GlcNAc(a1-3)Gal(b1-4)GlcNAc
Summary of the method: as §1

[42] = target: GlcNAc(a1-4)Gal(b1-3)GlcNAc
Summary of the method: as §1

[43] = target: GlcNAc(a1-4)Gal(b1-4)GalNAc
Summary of the method: as §1

[44] = target: GlcNAc(a1-4)Gal(b1-4)GlcNAc
Summary of the method: as §1

[45] = target: GlcNAc(a1-4)Gal(b1-4)GlcNAc(b1-3)Gal(b1-4)Glc
Summary of the method: as §1

B1: SefD (Salmonella enterica), Q9L6K6 (protein)
chain: GAYIIRGQNNSAHKLRIRIGGEDWQPDNSGIGMVSHSDFTNEFNIYYFGNGDIPVDTYLISIYATEIEL
glycan array binding signal (z-score) [1]: -0.176 | glycan array binding signal (z-score) [2]: -0.466 | glycan array binding signal (z-score) [3]: -0.18 | glycan array binding signal (z-score) [4]: 1.12 | glycan array binding signal (z-score) [5]: 0.393 | glycan array binding signal (z-score) [6]: -0.48 | glycan array binding signal (z-score) [7]: -0.296 | glycan array binding signal (z-score) [8]: -0.413 | glycan array binding signal (z-score) [9]: -0.484 | glycan array binding signal (z-score) [10]: 0.009 | glycan array binding signal (z-score) [11]: -0.02 | glycan array binding signal (z-score) [12]: -0.213 | glycan array binding signal (z-score) [13]: -0.091 | glycan array binding signal (z-score) [14]: -0.408 | glycan array binding signal (z-score) [15]: 0.288 | glycan array binding signal (z-score) [16]: -0.435 | glycan array binding signal (z-score) [17]: -0.524 | glycan array binding signal (z-score) [18]: -0.182 | glycan array binding signal (z-score) [19]: -0.209 | glycan array binding signal (z-score) [20]: -0.036 | glycan array binding signal (z-score) [21]: -0.316 | glycan array binding signal (z-score) [22]: -0.545 | glycan array binding signal (z-score) [23]: -0.303 | glycan array binding signal (z-score) [24]: 0.251 | glycan array binding signal (z-score) [25]: 0.448 | glycan array binding signal (z-score) [26]: -0.631 | glycan array binding signal (z-score) [27]: -0.05 | glycan array binding signal (z-score) [28]: 0.2 | glycan array binding signal (z-score) [29]: 0.499 | glycan array binding signal (z-score) [30]: -0.267 | glycan array binding signal (z-score) [31]: -0.546 | glycan array binding signal (z-score) [32]: -0.273 | glycan array binding signal (z-score) [33]: -0.307 | glycan array binding signal (z-score) [34]: 0.204 | glycan array binding signal (z-score) [35]: -0.319 | glycan array binding signal (z-score) [36]: -0.125 | glycan array binding signal (z-score) [37]: -0.464 | glycan array binding signal (z-score) [38]: -0.456 | glycan array binding signal (z-score) [39]: -0.236 | glycan array binding signal (z-score) [40]: -0.424 | glycan array binding signal (z-score) [41]: -0.375 | glycan array binding signal (z-score) [42]: -0.302 | glycan array binding signal (z-score) [43]: -0.351 | glycan array binding signal (z-score) [44]: -0.304 | glycan array binding signal (z-score) [45]: -0.529
